Source: publication PMC12040169 (PLOS Biology, 2025)
Read-outs that look alike come from different tables or passages of the source. Some of the results follow.

Test system: T1, C. trachomatis L2/434/Bu expressing GFP (CTL2-GFP)
T1 construct: L2/434/Bu GFP intracellular growth in HeLa cells
Design: species or system HeLa; C. trachomatis total inclusion area by high-content imaging, normalised to DMSO
Details: 28.5 h, 10 µM, inhibitor
Method in brief: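 High-content imaging followed the bulk GFP/resorufin measurement: fixed, Hoechst-stained cells were scored for GFP inclusions and host nuclei per well. Total inclusion area and count served as growth proxies, nuclei number as the viability proxy. MIC calculation matched the bulk assay.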

Row | SMILES | % of control remaining (total inclusion area) | % of control remaining
1 | CC(N)c1cc2ccccc2o1 (stereo not shown) [CBK001492C] | 79.8998 | –
2 | CN(C)[C@H]1CCC[C@@H]1C(=O)Nc1ccc(Cl)c(Cl)c1 [CBK003406] | 49.803 | –
3 | CNC(=O)Oc1ccc(C2(C)SCCS2)cc1 [CBK023078] | 54.9106 | –
4 | O=C(NNc1c(Cl)cccc1Cl)C(O)(c1ccccc1)c1ccccc1 [CBK262739] | 72.6297 | –
5 | Clc1cccc(N2CCNCC2)n1 [CBK001379] | 95.708 | –
6 | CCCCN1C(=O)C(O)(c2c(C)nn(CCC#N)c2N)c2ccccc21 (stereo not shown) [CBK306211] | 54.5997 | –
7 | COc1ccc(CCn2nc(C(=O)O)c3ccccc32)cc1 [CBK093525] | 99.3841 | –
8 | O=C(O)C(O)(c1ccccc1)c1cccs1 (stereo not shown) [CBK022808] | 106.752 | –
9 | CCCN(CCc1cccnc1)C1Cc2cc(OC)c(OC)cc2C1 [CBK023935C] | 124.522 | –
10 | COCCn1cc(C(=O)N2CCCC(CN(C)C)C2)c2ccccc21 (stereo not shown) [CBK281431] | – | 101.517
11 | Cc1cccc(OP(=O)(O)Oc2cccc(C)c2C)c1C [CBK261316] | 109.788 | –
12 | COc1cc(/C=N/O)ccc1Oc1ccc([N+](=O)[O-])cc1[N+](=O)[O-] [CBK261651] | 96.9801 | –
13 | CC1CN(C(=O)Oc2ccccc2)C(C)CN1CCCC(c1ccc(F)cc1)c1ccc(F)cc1 (stereo not shown) [CBK024993C] | 36.6326 | –
14 | CN(C)C(=O)OCCn1c(=O)oc2cc(Cl)ccc21 [CBK306455] | 60.2289 | –
15 | O=C(O)c1nsnc1-c1cc([N+](=O)[O-])cc([N+](=O)[O-])c1O [CBK261584] | – | 96.4557
16 | CCCCN1C(=O)C(O)(c2c(C)nn(CCO)c2N)c2ccccc21 (stereo not shown) [CBK304286] | 87.6401 | –
17 | O=C(Nc1ccc(Cl)cc1)c1cccc(-n2cnnn2)c1 [CBK287791] | – | 112.746
18 | CCN(CC)CCN(C)Cc1ccc2ccc3cccc4ccc1c2c34 [CBK261859] | 94.2496 | –
19 | O=C(CC(c1ccccc1)c1c(O)c2ccccc2oc1=O)c1ccc(-c2ccc(Br)cc2)cc1 (stereo not shown) [CBK260877] | – | 97.4349
20 | COc1cc(Cl)ccc1NC(=O)Oc1cccc2cnccc12 [CBK012882] | 107.274 | –
21 | COc1cccc2c1OCCC2CNCCCc1ccccc1 (stereo not shown) [CBK007716] | 53.8099 | –
22 | O=C(Nc1cc([N+](=O)[O-])ccc1O)c1cccc(C(=O)Nc2cc([N+](=O)[O-])ccc2O)c1 [CBK261168] | 104.42 | –
23 | NC(=O)C1=CN([C@@H]2O[C@H](CO)[C@H](O)C2O)C2N=CN=C(N)C12 (stereo partly shown) [CBK201209] | 0.1944 | –

Row | SMILES | % of control remaining (total inclusion area) | % of control remaining
24 | CN(C)C(=O)c1ccc(Cn2nc(C(=O)Nc3nccs3)c3ccccc32)cc1 [CBK047701] | 73.1617 | –
25 | Cc1cc(Cl)c(OC(=O)NC2CCCCC2)cc1C [CBK022948] | 62.6701 | –
26 | Cc1ccc(OP(=O)(NCCN2CCOCC2)Oc2ccc(C)cc2)cc1 [CBK261802] | 114.485 | –
27 | NC(=O)Cn1cc(C(=O)COc2ccccc2)c2ccccc21 [CBK267650] | 99.5618 | –
28 | COC(=O)c1cccc2c3c(n(Cc4ccccc4)c12)CCCC3=O [CBK036304] | 52.4228 | –
29 | N#CC(CCCN1CCC(O)(c2ccccc2)CC1)(c1ccccc1)c1ccccc1 [CBK002145] | – | 61.1385
30 | Cn1cc(C(=O)NCc2ccccc2)c2ccccc21 [CBK200196] | – | 90.0407
31 | CNC(=O)Oc1ccccc1/C=N/N(C)C [CBK023194] | 43.562 | –
32 | C=CCSc1nnc(OC(=O)N(C)C)n1-c1ccc(Cl)cc1 [CBK004817] | 98.5839 | –
33 | O=C(Cn1cc(C(=O)c2ccco2)c2ccccc21)NCCc1c[nH]c2ccccc12 [CBK267509] | 123.832 | –
34 | CC(=O)Nc1ccc(OC(=O)N2CCCCC2)cc1 [CBK090124] | 70.9572 | –
35 | CN(C(=O)c1ccc(Cl)c(Cl)c1)[C@H]1CCC[C@H]1N1CCCC1 [CBK003411C] | 0.7323 | –
36 | O=C(N/N=C1/CN2CCC1CC2)c1cccc(O)c1 [CBK262188C] | 102.6 | –
37 | CN(Cc1ccc(-c2ccc(S(C)(=O)=O)cc2)nc1)C1CCN(C(=O)Oc2ccc(F)cc2)CC1 [CBK166097] | 95.5897 | –
38 | CC1=CC(C)C(COC(N)=O)(COC(N)=O)C(C)C1 (stereo not shown) [CBK020974] | 88.2997 | –
39 | CC(C)NC(=O)Cn1cc(C(=O)COc2ccccc2)c2ccccc21 [CBK268317] | 109.015 | –
40 | CC[C@H](N)Cn1nc(-c2cccs2)oc1=O [CBK282393] | 92.7768 | –
41 | CNC(=O)Oc1cccc2cccnc12 [CBK015609] | 64.18 | –
42 | Cc1ccc(Cl)c(OC(=O)NCCOC(=O)NO)c1 [CBK288417] | 99.755 | –
43 | O=C(O)c1cc(N2C(=O)c3cccc4c([N+](=O)[O-])ccc(c34)C2=O)cc(N2C(=O)c3cccc4c([N+](=O)[O-])ccc(c34)C2=O)c1 [CBK262119] | 106.215 | –
44 | O=C1CCCc2c1c1cccc(C(=O)O)c1n2Cc1ccccc1 [CBK002365] | 81.0671 | –
45 | CN(C)C(=O)c1ccc(Cn2nc(C(=O)NC3CC3)c3ccccc32)cc1 [CBK047720] | 102.146 | –
46 | O=C(Nc1ccc(NC(=O)c2cccc([N+](=O)[O-])c2)c(Cl)c1)c1cccc([N+](=O)[O-])c1 [CBK261196] | 101.174 | –
